# T1: LGALS3BP (Homo sapiens, UniProt Q08380)
# T1 sequence (Q08380 19-585): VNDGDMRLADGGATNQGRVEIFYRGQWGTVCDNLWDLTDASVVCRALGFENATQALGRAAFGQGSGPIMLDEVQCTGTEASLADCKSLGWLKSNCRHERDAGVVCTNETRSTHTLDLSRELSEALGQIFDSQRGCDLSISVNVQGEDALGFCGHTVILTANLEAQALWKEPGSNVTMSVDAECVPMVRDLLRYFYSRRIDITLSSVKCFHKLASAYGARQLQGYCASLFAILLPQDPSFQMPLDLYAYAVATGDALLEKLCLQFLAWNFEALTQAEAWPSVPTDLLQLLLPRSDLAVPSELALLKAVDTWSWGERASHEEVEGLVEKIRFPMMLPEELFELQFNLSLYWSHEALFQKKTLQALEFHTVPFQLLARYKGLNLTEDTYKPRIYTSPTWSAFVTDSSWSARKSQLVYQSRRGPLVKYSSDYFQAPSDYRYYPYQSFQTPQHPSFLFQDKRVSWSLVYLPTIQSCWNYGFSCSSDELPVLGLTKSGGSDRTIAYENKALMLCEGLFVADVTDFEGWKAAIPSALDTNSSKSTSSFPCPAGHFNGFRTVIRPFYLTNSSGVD
# Columns and labels:
# A375 melanoma xenografts = assay: Human A375 melanoma xenograft model in nude mice; assay type: in vivo, CD-1 nu/nu mice; conditions: for CR (not palpable tumor), number of mice / Cut off (TV about 1.5 cm^3), number of mice / survival vs control mice: 5 injections; for CR (not palpable tumor), number of mice / Cut off (TV about 1.5 cm^3), number of mice: at 140 days from start of treatment; for therapeutic activity (tumor growth): Example 14: 10 mg/kg i.v. daily for 5 days, 1959-sss DM3 vs control P<0.00001 (FIG. 14)
# Description: Human melanoma xenografts were established by injecting subcutaneously 5×10^6 A375 cells in 5-6 week old CD-1 nu/nu mice nude mice. When the average tumor size within a group was approximately 100 mm^3, mice were divided into four groups in a manner to provide a similar range of tumor size in each group. The groups were treated with PBS (control), unconjugated 1959-sss antibody (10 mg/kg), 1959-sss-DM1 (10 mg/kg), or 1959-sss-DM3 (10 mg/kg). Treatments were administered by intravenous injection daily for 5 days (arrows). Tumor volumes were calculated according to the following formula: tumor volume=(length*width^2)/2. Tumor volumes were monitored every week. A, tumor growth curves. The data represent mean tumor volume (±SEM), n=5 or 6 mice/group. B, body weight of mice groups shown in panel A.
# A, growth of subcutaneously implanted human A375 melanoma xenografts in nude mice treated with PBS (control), 1959-sss-DM3 (10 mg/kg) daily or twice a week (t/w) for a total of 5 injections, or 1959-sss-DM4 (10 mg/Kg) t/w for a total of 5 injections. The data represent mean tumor_volume (±SEM), n=5 or 6 mice/group. B, Kaplan-Meyer plot showing survival of the treatment groups shown in panel A.
# Growth of subcutaneously implanted human A375 melanoma xenografts in nude mice treated with PBS (control), or 1959-sss-DM3 at 10, 3 or 1 mg/Kg t/w for a total of 5 injections.
# LGALS3BP [1] = molecular target: T1, LGALS3BP; assay: Confocal immunofluorescence staining of human tumor cell lines and normal fibroblasts; assay type: cell-based; set-up: endogenous in cells; host or cells: A3: MDA-MB-231, A375, FADU, HBF normal bronchial fibroblasts; A5: neuroblastoma lines Kelly, SKNAS, hNB; conditions: MDA-MB-231, A375, FADU tumor cells vs HBF normal bronchial fibroblasts; 2 hours incubation (FIG. 12)
# Description: Human tumor cells were grown on glass coverslips for 24 hours. Coverslips were incubated for 2 hours at room temperature with 1959-sss or 1959-sss-DM3 3. At the end of incubation, cells were fixed in 4% paraformaldehyde for 15 minutes at room temperature, permeabilized with 0.25% Triton X-100 for 5 minutes, and blocked with 0.1% BSA for 1 hour at room temperature. Coverslips were then incubated with anti-human IgG-Alexa Fluor 488 conjugated. DRAQ5 was used to visualize nuclei. Images were acquired with a Zeiss LSM 510 meta-confocal microscopy using 488- and 633-nm lasers. • A, C, E, G, unconjugated 1959-sss; B, D, F, H, 1959-sss-DM3. • A-B; MDA-MB-231 breast cancer; C-D, A375 melanoma; E-F, FADU, H&N cancer; G-H, HBF, normal bronchial fibroblasts.
# [2] = tested on: hNB cells (LGALS3BP-negative) derived xenograft; assay: hNB (LGALS3BP-negative) neuroblastoma xenograft model; assay type: in vivo, mice
# Description: (§1) A) SKNAS cells (LGALS3BP-positive) and hNB cells (LGALS3BP-negative) derived xenograft models were generated by subcutaneous injection into the right flank of mice of 3×10^6 of cells in 200 μl of PBS. When xenografts became palpable, animals were divided into 2 groups in a way to provide a similar range of tumor size for each group. The treated group received 4 intravenous injections twice weekly of 1959-sss/DM3 (10 mg/kg) whereas the control group received PBS only. Tumor volume was monitored every week by a caliper and calculated by the following formula: tumor volume (mm^3)=(length×width^2)/2. A tumor volume of 2 cm^3 was chosen as endpoint for both experiments after which mice were sacrificed. Survival curves were derived from Kaplan-Meier estimates and compared by log-rank test (GraphPad Prism 5). B) 1959-sss/DM3 accumulation in tumour tissues was evaluated by immunofluorescence analysis of SKNAS and hNB tumour xenografts. Animals bearing tumours received a single injection of 1959-sss/DM3 at the dose of 10 mg/kg and thereafter animals were sacrificed 72 h later. Fresh tumour tissues were frozen in a cryo-embedding medium and cryostat sections were stained with anti CD31/CD105 antibodies (red) to visualize blood vessels; cells nuclei were stained by DRAQ5 (blue). Scale bars: 50 μm.
# [3] = Single i.v. injection safety observation in cross-breed rabbits; assay type: in vivo; conditions: 5 mg/Hg single i.v. injection, observation until day 7
# Description: The 1959-sss-DM3 ADC of the present invention and the pharmaceutical composition containing this 1959-sss-DM3 ADC have an excellent safety profile.
# [4] = tested on: SKNAS cells (LGALS3BP-positive) derived xenograft; assay: SKNAS (LGALS3BP-positive) neuroblastoma xenograft model; assay type: in vivo, mice
# Description: as §1
# LGALS3BP [5] = molecular target: T1, LGALS3BP; assay: ELISA binding to plate-coated human recombinant LGALS3BP; conditions: LGALS3BP coated at 2 μg/ml, read at 492 nm (FIG. 11)
# Description: Human recombinant LGALS3BP (2 μg/ml) was pre-coated overnight at 4° C. on 96 well-plates NUNC Maxisorp modules. After blocking with 1% BSA in PBS containing 0.1% Tween-20 for 1 hour at room temperature, unconjugated 1959-sss antibody or 1959-sss-DM3 was added and incubated at the indicated concentration for 2 hours at room temperature. After several washes with PBS-0, 1% Tween-20, anti-human IgG-HRP was added and incubated for 1 hour at room temperature. After washes, stabilized chromogen was added for at least 10 minutes in the dark, before stopping the reaction with the addition of 1 N H2SO4. The resulting color was read at 492 nm with an Elisa reader.
# [6] = Pharmacokinetics in mouse serum (total antibody by sandwich ELISA); assay type: in vivo, Athymic CD-1 nu/nu mice; conditions: single i.v. dose 10 mg/kg
# Description: Non-tumour bearing Athymic CD-1 nu/nu mice were injected intravenously with a single dose of 1959-sss/DM3 (10 mg/kg) and blood samples collected at different time points thereafter. Serum concentrations of total antibody were measured by sandwich ELISA using as capture antigen recombinant LGALS3BP and goat anti-human IgG-HRP for detection. Half-time (t1/2) and AUC values were obtained by Kinetica 5.0 software.
# [7] = tested on: SKNAS and Kelly neuroblastoma cells; assay: Experimental metastasis assay in neuroblastoma cell models; assay type: in vivo, NSG mice; conditions: 10 mg/kg i.v., 4 injections twice weekly, started 14 days after cell injection
# Description: Schematic representation of experimental metastasis assays (A) performed in SKNAS (B) and Kelly (C) neuroblastoma cell models. Eight-weeks old NSG mice were injected in the tail vein with neuroblastoma cells, the intravenous treatments (1959-sss/DM3 or free DM3 at the indicated doses, PBS as control) were started after 14 days from the injection for 4 injections twice weekly. After 28 days, mice were sacrificed, and organs (liver, kidney, lung and bone marrow) were processed for metastasis analysis. Liver, kidney and lung were harvested, fixed in 10% neutral buffered formalin, paraffin embedded, sectioned and stained with Hematoxylin and Eosin. All neuroblastoma metastatic lesions were analyzed and plotted on graphs (above). Representative images are shown (below). As regards bone marrow analysis, femora and tibiae were cut out from mice after sacrifice, soft tissue were accurately removed and bone marrow cells suspension was collected into a tube by flushing the shaft with 1 ml of cold PBS using a 1 ml syringe with needle. Bone marrow cells were resuspended and washed several times, then cells were stained with an anti-human-GD2 followed by fluorescent secondary antibody for flow cytometry analysis. Percentage of GD2 positive cells is shown in the dot plot.
Molecule,"CR (not palpable tumor), number of mice (A375 melanoma xenografts; 10 mg/kg daily)","Cut off (TV about 1.5 cm^3), number of mice (A375 melanoma xenografts; 10 mg/kg daily)","CR (not palpable tumor), number of mice (A375 melanoma xenografts; 10 mg/kg t/w)","Cut off (TV about 1.5 cm^3), number of mice (A375 melanoma xenografts; 10 mg/kg t/w)",therapeutic activity (tumor growth) (A375 melanoma xenografts),"survival vs control mice (A375 melanoma xenografts; Example 15: 10 mg/kg daily, vs control P<0.0001)","survival vs control mice (A375 melanoma xenografts; Example 15: 10 mg/kg twice a week (t/w), vs control P<0.00001)","inhibition of tumor growth (A375 melanoma xenografts; Example 15: 10 mg/kg, total of 5 injections (DM3 daily or t/w, DM4 t/w) (FIG. 15))",staining at the cell membrane (LGALS3BP [1]),"accumulation in tumor tissue (immunofluorescence) ([2]; LGALS3BP-negative tumor, 72 hours after single i.v. injection of 10 mg/kg)","tumor shrinkage ([2]; LGALS3BP-negative xenografts, 10 mg/kg i.v., 4 injections twice weekly)",toxicity findings [3],"accumulation in tumor tissue (immunofluorescence) ([4]; LGALS3BP-positive tumor, 72 hours after single i.v. injection of 10 mg/kg)","tumor shrinkage ([4]; LGALS3BP-positive xenografts, 10 mg/kg i.v., 4 injections twice weekly)",binding behaviour to LGALS3BP (LGALS3BP [5]),Half-time (t1/2) [6],formation of neuroblastoma metastatic lesions [7]
1959-sss-DM3 (conjugate) heavy: QVQLQESGPGLVKPSETLSLTCAVSGYSISSGYYWTWIRQPPGKGLEWIGYITYDGKNNYSPSLKNRVTISVDTSKNQFSLKLSSVTAADTAVYYCAREGSSVITTGFTFWGQGTLVTVSSASTKGPSVFPLAPSSKSTSGGTAALGCLVKDYFPEPVTVSWNSGALTSGVHTFPAVLQSSGLYSLSSVVTVPSSSLGTQTYICNVNHKPSNTKVDKKV[human IgG1 Fc with changes not written out] light: DIQMTQSPSTLSASVGDRVTITCSASSRVSYMYWYQQKPGKAPKLLIYLTSNLASGVPARFSGSGSGTEFTLTISSLQPDDFATYYCQQWTSHPPTFGQGTKVEVKRTVAAPSVFIFPPSDEQLKSGTASVVCLLNNFYPREAKVQWKVDNALQSGNSQESVTEQDSKDSTYSLSSTLTLSKADYEKHKVYACEVTHQGLSSPVTKSFNRGEC,0,5/6,5/6,1/6,significantly inhibited tumor growth,survived longer than control mice,survived longer than control mice,significant inhibition of tumor growth,"staining at the cell membrane of human tumor cells, but not normal cells",but not LGALS3BP-negative tumor tissues shows accumulation,induces shrinkage in LGALS3BP-positive but not negative,no toxicity findings were observed,shows accumulation,induces shrinkage,same binding behaviour,around 97.9 hours,potently inhibits formation of neuroblastoma metastatic lesions
1959-sss (antibody) heavy: QVQLQESGPGLVKPSETLSLTCAVSGYSISSGYYWTWIRQPPGKGLEWIGYITYDGKNNYSPSLKNRVTISVDTSKNQFSLKLSSVTAADTAVYYCAREGSSVITTGFTFWGQGTLVTVSSASTKGPSVFPLAPSSKSTSGGTAALGCLVKDYFPEPVTVSWNSGALTSGVHTFPAVLQSSGLYSLSSVVTVPSSSLGTQTYICNVNHKPSNTKVDKKV[human IgG1 Fc with changes not written out] light: DIQMTQSPSTLSASVGDRVTITCSASSRVSYMYWYQQKPGKAPKLLIYLTSNLASGVPARFSGSGSGTEFTLTISSLQPDDFATYYCQQWTSHPPTFGQGTKVEVKRTVAAPSVFIFPPSDEQLKSGTASVVCLLNNFYPREAKVQWKVDNALQSGNSQESVTEQDSKDSTYSLSSTLTLSKADYEKHKVYACEVTHQGLSSPVTKSFNRGEC,,,,,no therapeutic activity,,,,"staining at the cell membrane of human tumor cells, but not normal cells",,,,,,same binding behaviour,,

# From patent US20250281632A1, “LGALS3BP ANTIBODY-DRUG-CONJUGATE AND ITS USE FOR THE TREATMENT OF CANCER” (MEDIAPHARMA S.R.L., priority 2018, published 2025)
